Among all 350,000 compounds or so, about 31,000 (8.9%) were called active. Inconclusive results, whose numbers are uncertain, are shown with a selection of clear calls. The call rests on the fitted dose curve; in most records, active means well fitted inhibition curve with a large enough effect; inconclusive means small, poorly fitted or top-dose-only effect; inactive means no such curve, though single readings can be large or run the other way. A potency beside an inconclusive call is a rough fit, not a confirmed value.
What follows are compounds tested against Histone-lysine N-methyltransferase EHMT2 (Homo sapiens) (UniProt Q96KQ7) (assay: qHTS Assay for Inhibitors of Histone Lysine Methyltransferase G9a). Conditions: G9a H3K9 monomethylation, AlphaScreen, 2 h; activity, negative = inhibition: at 59 µM (top of the series) unless noted.
Sequence of UniProt Q96KQ7 (Q96KQ7 whole entry, looked up): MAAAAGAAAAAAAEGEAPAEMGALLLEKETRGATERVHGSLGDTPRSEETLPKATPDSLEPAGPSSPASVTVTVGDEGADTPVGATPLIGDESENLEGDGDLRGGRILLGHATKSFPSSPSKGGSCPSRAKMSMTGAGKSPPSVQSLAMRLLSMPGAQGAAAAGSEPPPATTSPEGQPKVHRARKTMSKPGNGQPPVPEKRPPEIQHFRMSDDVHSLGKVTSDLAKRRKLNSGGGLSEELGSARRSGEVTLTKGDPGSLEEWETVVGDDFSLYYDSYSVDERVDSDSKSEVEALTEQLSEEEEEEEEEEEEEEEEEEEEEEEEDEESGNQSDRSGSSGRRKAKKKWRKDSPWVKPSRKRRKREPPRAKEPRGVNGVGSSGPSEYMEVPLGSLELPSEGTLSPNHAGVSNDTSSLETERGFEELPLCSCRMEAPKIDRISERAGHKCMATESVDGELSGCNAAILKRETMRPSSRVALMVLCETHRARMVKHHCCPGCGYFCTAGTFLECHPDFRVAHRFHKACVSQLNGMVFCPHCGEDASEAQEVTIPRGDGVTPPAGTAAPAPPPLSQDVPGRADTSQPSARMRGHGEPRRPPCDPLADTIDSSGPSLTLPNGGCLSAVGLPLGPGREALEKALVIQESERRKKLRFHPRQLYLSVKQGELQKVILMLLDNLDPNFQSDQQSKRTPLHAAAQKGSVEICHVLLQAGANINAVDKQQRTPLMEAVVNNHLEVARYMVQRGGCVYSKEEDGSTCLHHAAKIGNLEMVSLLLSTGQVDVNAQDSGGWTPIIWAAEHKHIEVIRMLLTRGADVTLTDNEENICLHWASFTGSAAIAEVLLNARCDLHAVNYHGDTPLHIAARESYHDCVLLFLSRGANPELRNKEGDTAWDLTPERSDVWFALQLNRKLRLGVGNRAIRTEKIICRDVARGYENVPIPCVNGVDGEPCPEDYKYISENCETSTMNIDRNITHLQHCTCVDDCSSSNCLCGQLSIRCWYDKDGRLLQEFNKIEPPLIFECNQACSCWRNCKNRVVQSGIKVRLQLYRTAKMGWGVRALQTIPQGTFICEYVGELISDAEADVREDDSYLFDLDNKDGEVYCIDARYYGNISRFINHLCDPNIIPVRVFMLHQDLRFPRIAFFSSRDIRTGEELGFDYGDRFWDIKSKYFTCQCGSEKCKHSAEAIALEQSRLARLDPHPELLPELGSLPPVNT
In short: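 Methyltransferase reactions run at room temperature for 2 h (20 nM enzyme, 500 nM biotin-H3K9 peptide, 20 uM SAM) after a 15 min compound preincubation; product detected by AlphaScreen beads and anti-H3K9me1 antibody.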
Further: nearly all actives have a fitted effect of over 75% in size.
On the % scale 0 is the no-effect control and ±100 the full control effect; potency means the concentration at half of the fitted maximal effect; tags describe the fitted curve by direction and shape.

Row | Structure (SMILES) | Potency | activity, negative = inhibition
1 | C#CCn1cc(/C=N/NC(=O)c2cc3ccccc3o2)c2ccccc21 | inactive | 
2 | Cc1ccc(C)n1-c1cc(S(=O)(=O)N2CCOCC2)ccc1N1CCCC1 | inconclusive: 5.01 µM [inhibitor, full curve, poor fit] | 
3 | COc1ccc(NC(=O)c2cc(-c3ccc(C)o3)nc3ccccc23)cc1OC | inconclusive: 3.55 µM [inhibitor, single point] | 
4 | CC[N+]1(CC)CC2=Cc3ccccc3CC2C1 (centres undefined) | inconclusive: 89.1 µM [inhibitor, single point] | 
5 | Cc1cc(=O)n2[nH]cc(C(=O)O)c2n1 | inconclusive: 22.4 µM [inhibitor, single point] | 
6 | O=C(c1ccc(Cl)cc1)c1oc2ccccc2c1CS(=O)c1ccccc1 (centres undefined) | inconclusive: 28.2 µM [inhibitor, single point] | 
7 | CCN(CC)P(=O)(Nc1ccc(SC(F)F)cc1)c1ccc(N(C)C)cc1NC(=O)c1ccco1 (centres undefined) | inconclusive: 14.1 µM [inhibitor, partial curve] | 
8 | Cc1cc(C)cc(C(=O)NC(CC(N)=O)c2ccc(N3CCC(N4CCCCC4)CC3)c([N+](=O)[O-])c2)c1 (centres undefined) | inconclusive: 79.4 µM [inhibitor, single point] | 
9 | Cc1ccc(C(c2nnnn2Cc2cccs2)N2CCN(Cc3ccc4c(c3)OCO4)CC2)cc1 (centres undefined) |  | inconclusive: -54.7% [inhibitor]
10 | O=C(C1CC1)N1CCC(C(O)(c2ccccc2)c2ccccc2)CC1 | inactive | 
11 | COc1cc2nc(NCc3ccc(C)cc3)n3nc(-c4ccccc4)nc3c2cc1OC | inactive | 
12 | CC(OC(=O)c1n[nH]c2ccccc12)C(=O)NC1CCCCC1C (centres undefined) |  | inactive: 13.3% [at 12.7 µM]
13 | CCC(Sc1nc2ccccc2o1)C(=O)O (centres undefined) | inconclusive: 79.4 µM [inhibitor, partial curve, poor fit] | 
14 | Cc1ccc(-c2cc(C(=O)N/N=C/C(Br)=C/c3ccccc3)n[nH]2)o1 | inconclusive: 44.7 µM [inhibitor, partial curve] | 
15 | Clc1ccccc1CSc1nc2ccncc2[nH]1 | active: 44.7 µM | 
16 | COc1ccc(C(CNC(=O)COc2ccc(Br)cc2F)N2CCCC2)cc1 (centres undefined) | inconclusive: 1.41 µM [inhibitor, single point] | 
17 | S=C(c1ccc(-c2ccccc2Cl)o1)N1CCOCC1 | inconclusive: 1.12 µM [inhibitor, partial curve, poor fit] | 
18 | CCC1CCCCN1CCCNC(=O)c1ccc2c(c1)N(Cc1ccc(F)cc1)C(=O)c1ccccc1S2=O (centres undefined) | inconclusive: 2.24 µM [inhibitor, partial curve, poor fit] | 
19 | Cc1cccc(-c2cc(C(=O)NCCCn3ccnc3)c3ccccc3n2)c1 | inactive | 
20 | COc1ccccc1-n1cnc2cc(NCc3cccs3)ccc21 | inconclusive: 3.16 µM [inhibitor, single point] | 
21 | COc1ccc(NC(=O)c2cccc([N+](=O)[O-])c2)cc1 | inconclusive: 50.1 µM [inhibitor, partial curve, poor fit] | 
22 | CC(=O)N/C(=C/c1ccc(OS(=O)(=O)c2ccc(C)cc2)cc1)C(=O)NCCO | inactive | 
23 | Cc1cccc(Oc2coc3cc(OC(=O)c4cncc(Br)c4)ccc3c2=O)c1 | inconclusive: 39.8 µM [inhibitor, single point] | 

Row | Structure (SMILES) | Potency | activity, negative = inhibition
24 | C=C(C)C(=O)Nc1cccc(C2=NOC3(C2)C[C@@H](C(N)=O)N(C(=O)/C=C/CC)C3)c1 (some centres undefined) |  | inconclusive: -136% [inhibitor] [at 12.7 µM]
25 | CCOC(=O)c1c(NC(=O)CSc2nnc(C)s2)sc2c1CCC(CC)C2 (centres undefined) | inconclusive: 28.2 µM [inhibitor, partial curve, poor fit] | 
26 | NS(=O)(=O)c1ccc(NC(=S)NC(=O)c2cccnc2)cc1 | active: 50.1 µM | 
27 | COc1ccc(CNC(=O)c2c3c(nc4ccccc24)C(=O)N(C2CCCCC2)C3)cc1 | inactive | 
28 | O=C(NCC(c1cccs1)N1CCOCC1)c1cc(-c2ccccn2)nc2ccccc12 (centres undefined) |  | inconclusive: -88.2% [inhibitor]
29 | CN1CCC(OC(=O)COc2ccc(C(C)(C)C)cc2)CC1 | inconclusive: 44.7 µM [inhibitor, partial curve] | 
30 | CCN(CC)C(=O)CC(c1cc(OC)c(OC)c(OC)c1)c1c(O)cc(OC)cc1OC (centres undefined) |  | inactive: 18.3% [at 12.7 µM]
31 | Cc1ccc(NC(=S)NNC(=O)CSc2nc3ccccc3c(=O)n2-c2ccc(C)cc2)cc1 | inconclusive: 8.91 µM [inhibitor, partial curve, poor fit] | 
32 | CCOC(=O)c1scc(-c2ccccc2)c1S(=O)(=O)Nc1cc(Cl)c(OC)cc1OC | active: 10 µM | 
33 | Cc1cc(/C=N\NC(=O)c2cccs2)c(C)n1-c1ccc2ncccc2c1 |  | inactive: 48.4% [at 12.7 µM]
34 | COc1ccc(-n2c(C(C)n3nc(C)c([N+](=O)[O-])c3C)n[nH]c2=S)cc1 (centres undefined) | active: 6.31 µM | 
35 | COc1ccc(Nc2nc(N)c3cc(OC)c(OC)cc3n2)cc1 | inconclusive: 25.1 µM [inhibitor, single point] | 
36 | CCCn1nc(NC(=O)c2ccco2)c2cc3ccccc3nc21 | inconclusive: 79.4 µM [inhibitor, single point] | 
37 | CCN(c1ccccc1)S(=O)(=O)c1ccc(C(C(=O)OC)C(=O)OC)c([N+](=O)[O-])c1 | inconclusive: 89.1 µM [inhibitor, partial curve, poor fit] | 
38 | O=C(c1cc(-c2ccncc2)nc2ccc(Cl)cc12)N1CCN(Cc2ccc3c(c2)OCO3)CC1 |  | inconclusive: -80.6% [inhibitor]
39 | COc1ccc(C2CC(=O)N(Cc3cccc(F)c3)c3ccccc3S2)cc1 (centres undefined) | inactive | 
40 | COc1ccc(N2CCN(Cc3nc4ccsc4c(=O)[nH]3)CC2)cc1 | inconclusive: 3.16 µM [inhibitor, single point] | 
41 | COc1ccc(C)cc1NC(=O)CN1CCN(S(=O)(=O)c2ccc(F)cc2)CC1 | inconclusive: 89.1 µM [inhibitor, single point] | 
42 | Fc1ccc(C2=CC(c3ccco3)n3nnnc3N2)cc1 (centres undefined) | inconclusive: 15.8 µM [inhibitor, partial curve, poor fit] | 
43 | CCCCCCCCNC(=S)NCCN1CCCCC1 | active: 44.7 µM | 
44 | Cc1nc(SCc2ccc([N+](=O)[O-])cc2)n[nH]1 |  | inactive: -8.75% [at 0.501 µM]
45 | COc1ccc(NCC(=O)n2c(C)c(C)c3ccccc32)cc1 | active: 10 µM | 
46 | CCOC(=O)c1sc2ccc(S(=O)(=O)N3CC(C)CC(C)C3)cc2c1N (centres undefined) | inconclusive: 89.1 µM [inhibitor, single point] | 

Row | Structure (SMILES) | Potency | activity, negative = inhibition
47 | Cc1ncc([N+](=O)[O-])n1CCOC(=O)Nc1ccc(Cl)c(Cl)c1 | inconclusive: 50.1 µM [inhibitor, partial curve, poor fit] | 
48 | CC(C)(C)C1=CC(=O)C(N2CCOCC2)=CC1=O | inconclusive: 39.8 µM [inhibitor, single point] | 
49 | CC1(C)CC(=O)CC(C)(C)N1OC(=O)c1ccccn1 | inconclusive: 79.4 µM [inhibitor, single point] | 
50 | CN1CCc2c(sc3c2C(=O)NC(c2cn(Cc4ccccc4)c4ccccc24)N3)C1 (centres undefined) |  | inconclusive: -70% [inhibitor]
51 | Cc1cccc(NC(=S)NNC(=O)c2ccc(O)cc2O)c1C | inconclusive: 17.8 µM [inhibitor, full curve] | 
52 | COc1cccc(C(=O)NCCS(=O)(=O)NCc2cccs2)c1 | active: 35.5 µM | 
53 | CCOc1ccc2cc(/C=C/C(=O)c3ccco3)c(Cl)nc2c1 | inconclusive: 56.2 µM [inhibitor, partial curve, poor fit] | 
54 | CC(=O)c1ccc(NC(=O)COc2ccccc2-c2nc(-c3cccc(C)c3)no2)cc1 | inactive | 
55 | COc1ccc2c(CCNC(=O)c3ccc([N+](=O)[O-])cc3)c[nH]c2c1 | inconclusive: 63.1 µM [inhibitor, partial curve, poor fit] | 
56 | COc1ccc(NC(=O)CSc2nnc(NC(=O)Nc3ccccc3)s2)cc1OC | inactive | 
57 | Cc1c(C(=O)Oc2cccc3cccnc23)cccc1[N+](=O)[O-] | inconclusive: 31.6 µM [inhibitor, partial curve, poor fit] | 
58 | CCOc1ccccc1/C=N/Nc1ccc(Cl)nn1 | inactive | 
59 | O=C(O)c1ccc(N/N=C2/CCCc3ccccc32)cc1 | inconclusive: 1.26 µM [inhibitor, full curve, poor fit] | 
60 | O=C(CCCc1ccccc1)NCCc1ccc(F)cc1 | inactive | 
61 | O=C1C=C(Nc2ccc(F)cc2)c2ccccc2C1=O | active: 7.94 µM | 
62 | C=CCn1c(C)nnc1SCC(=O)Nc1nccs1 | inconclusive: 44.7 µM [inhibitor, partial curve, poor fit] | 
63 | CC(C)c1nc2sc3c(SCC(=O)NCc4ccco4)ncnc3c2c2c1CCC2 | active: 44.7 µM | 
64 | O=C1Cc2ccccc2C(=O)N1c1ccc(F)cc1Cl | active: 50.1 µM | 
65 | C/C(=N\Nc1ccccn1)c1ccc(S(=O)(=O)NCc2ccco2)cc1 | inactive | 
66 | Cc1cc(C)nc(SCc2ccc(C(=O)N/N=C/c3cccnc3)cc2)n1 | inconclusive: 79.4 µM [inhibitor, single point] | 
67 | O=C1C2ON(c3ccccc3)C(c3ccncc3)C2C(=O)N1c1ccc(N2CCOCC2)cc1 (centres undefined) | inconclusive: 89.1 µM [inhibitor, single point] | 
68 | CC(=O)c1ccc(NC(=O)c2sc(-n3nc(C)c(Cc4ccccc4)c3C)nc2C)cc1 | inactive | 
69 | Cc1cc(/C=C2\C(=N)N3N=CSC3=NC2=O)c(C)n1Cc1ccccc1 | inconclusive: 44.7 µM [inhibitor, partial curve] | 
